Assay results reported in PubChem BioAssay AID2546 (National Center for Advancing Translational Sciences (NCATS), 2010).
Screen size: about 310,000 compounds; about 11,000 (3.5%) were called active. The inconclusive results got no clear call from the source; some entries with a clear call stand among them for comparison. Calls follow the shape of the dose curve; as a rule, active = well fitted inhibition curve with a large enough effect; inconclusive = small, poorly fitted or top-dose-only effect, or effect the other way; inactive = flat fitted curve, though single readings scatter. Potencies of inconclusive entries are left out as doubtful fits.

Experiment: VP16 counterscreen qHTS for inhibitors of ROR gamma transcriptional activity;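 also: Gal4-VP16 expression switched on by copper sulfate through the metallothionein promoter; nearly all actives have a fitted effect of over 50% in size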
Settings: Drosophila S2 Gal4-VP16 UAS-luciferase, luminescence, 20 h; activity, negative = inhibition: at 53.6 µM (top of the series)
% is scaled to controls: 0 for no effect and ±100 for the full control effect; potency is read from the fitted curve at half-maximal effect; tags tell the direction and shape of the fitted curve.

Compound | Potency | activity, negative = inhibition
COCCOC(=O)c1[nH]c2c(c1C)C(=O)CC(c1cc(OC)c(OC)c(OC)c1)C2 (configuration not stated) | inconclusive [inhibitor, single point] | 
Cc1oc(-c2cccc(Cl)c2)nc1CSCC(=O)O | active: 5.01 µM | 
O=C(NCCCCc1ccccc1)C1CC(c2cc(C(F)(F)F)cc(C(F)(F)F)c2)=NO1 (configuration not stated) |  | inactive: -21.4%
N#Cc1c(NC(=O)C2CC(c3ccccc3O)=NO2)sc2c1CCC2 (configuration not stated) | inconclusive [inhibitor, single point] | 
COC(=O)c1ccc(COc2ccccc2/C=N/NC(=O)c2cccnc2)cc1 |  | inactive: 0.85%
CCOC(=O)c1cccc(NC(=O)CCc2nc(-c3ccc(C)cc3)no2)c1 |  | inactive: -28.6%
COc1ccc(C(=O)CCN2CCC(C)CC2)cc1 | inconclusive [inhibitor, single point] | 
O=C(NCc1cc(F)ccc1F)C1CCC(=O)N(C2CCCCCC2)C1 (configuration not stated) |  | inactive: 19.1%
Cc1ccc(-c2n[nH]c(=S)n2/N=C/c2c(C)nn(-c3ccccc3)c2C)cc1 | inconclusive [inhibitor, partial curve] | 
COc1ccccc1NC(=S)NNC(=O)c1nn(C)c(C)c1Cl |  | inactive: 16.6%
Cc1nn(Cc2ccc(Cl)cc2Cl)c(Cl)c1/C=N/NC(=O)CNc1cccc(C(F)(F)F)c1 | inconclusive [inhibitor, single point] | 
COc1ccc(NC(=O)c2ccc(NC(=O)c3cccs3)cc2)cc1 | inconclusive [inhibitor, partial curve] | 
CC1Cc2ccccc2N1CC(=O)NCc1ccc2c(c1)OCO2 (configuration not stated) |  | inactive: -10.9%
O=[N+]([O-])c1cccc(/C=N/Nc2ccccn2)c1 | inconclusive [activator, full curve] | 
Cn1ncc2c(NNC(=O)c3ccc(Cl)c(Cl)c3)ncnc21 | active: 1.12 µM | 
CCCn1nnnc1NCc1ccc(OC)cc1 |  | inactive: 4.22%
O=C(Nc1nc(=O)n(C(=O)C2CC2)s1)c1ccccc1 | inconclusive [inhibitor, single point] | 
O=C(N/N=C/C(Br)=C/c1ccccc1)c1cccs1 | inconclusive [activator, full curve, poor fit] | 
Cc1cccc(NC(=O)Cn2nc(-c3cccs3)ccc2=O)c1C |  | inactive: 9.29%
COC(=O)c1c(-c2ccccc2Cl)noc1/C=C/N(C)C | inconclusive [inhibitor, single point] | 
O=C(NCC(=O)N1CCN(c2ccccc2O)CC1)c1ccco1 | inconclusive [activator, partial curve] | 
COc1nc(-c2ccc(Cl)cc2Cl)nc2ccccc12 |  | inactive: 20.4%
